These results are taken from PMC4336329 (PLoS ONE, 2015).

Molecules are shown by their SMILES. The campaign covered roughly 310,000 compounds. About 2,200 (0.71%) showed an effect of 50% or more. The effect is printed as a negative number. Some of the results follow.

Sequence of human ether-à-go-go-related gene (hERG) potassium channel (Q12809 whole entry, looked up): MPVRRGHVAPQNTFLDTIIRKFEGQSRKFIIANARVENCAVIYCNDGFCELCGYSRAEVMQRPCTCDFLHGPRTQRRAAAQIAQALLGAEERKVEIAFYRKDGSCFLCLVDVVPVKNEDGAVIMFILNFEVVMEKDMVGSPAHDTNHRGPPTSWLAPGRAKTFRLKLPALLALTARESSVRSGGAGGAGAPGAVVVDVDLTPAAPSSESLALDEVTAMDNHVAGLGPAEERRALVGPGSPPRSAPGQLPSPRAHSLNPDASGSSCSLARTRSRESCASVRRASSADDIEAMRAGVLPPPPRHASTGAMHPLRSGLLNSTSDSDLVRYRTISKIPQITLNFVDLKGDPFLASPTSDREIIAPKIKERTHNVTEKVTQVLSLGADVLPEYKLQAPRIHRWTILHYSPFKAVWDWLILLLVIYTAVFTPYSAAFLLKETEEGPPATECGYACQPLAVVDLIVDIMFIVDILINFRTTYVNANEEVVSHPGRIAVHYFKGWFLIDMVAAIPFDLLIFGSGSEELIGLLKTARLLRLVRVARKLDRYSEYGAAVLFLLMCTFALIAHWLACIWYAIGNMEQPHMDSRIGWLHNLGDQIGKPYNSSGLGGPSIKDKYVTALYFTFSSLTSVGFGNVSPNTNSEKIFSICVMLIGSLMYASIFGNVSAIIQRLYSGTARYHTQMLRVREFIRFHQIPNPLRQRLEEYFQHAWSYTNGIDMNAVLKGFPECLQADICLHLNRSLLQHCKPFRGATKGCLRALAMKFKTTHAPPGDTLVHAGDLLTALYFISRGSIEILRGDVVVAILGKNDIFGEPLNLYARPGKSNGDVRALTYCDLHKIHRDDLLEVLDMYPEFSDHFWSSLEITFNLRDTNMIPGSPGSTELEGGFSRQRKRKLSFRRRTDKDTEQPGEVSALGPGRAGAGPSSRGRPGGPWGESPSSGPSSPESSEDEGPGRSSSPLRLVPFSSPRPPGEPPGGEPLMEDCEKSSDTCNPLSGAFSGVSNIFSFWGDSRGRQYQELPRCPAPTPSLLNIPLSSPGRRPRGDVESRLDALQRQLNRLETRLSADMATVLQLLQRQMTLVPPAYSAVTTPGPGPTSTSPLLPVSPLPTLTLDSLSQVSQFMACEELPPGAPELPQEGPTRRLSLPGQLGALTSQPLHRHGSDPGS

This test addresses human ether-à-go-go-related gene (hERG) potassium channel (human, UniProt Q12809). Description: primary screen, population patch clamp on CHO cells stably expressing hERG.
In the case of `CS(=O)(=O)c1ccccc1-c1nnc(NC(=O)c2ccco2)o1`, the “hERG current change (%, negative = inhibition) at 1uM” value stood at 17.6%. With `O=C(N/N=C/c1cccs1)c1cccc(NC(=O)c2ccc(Cl)cc2)c1`, the “hERG current change (%, negative = inhibition) at 1uM” value worked out at 10.7%.

Regarding `Cc1sc(NC(=S)NC(=O)c2ccco2)c(C(N)=O)c1C`, the “hERG current change (%, negative = inhibition) at 1uM” value stood at 20.1%. As to `O=C(NNC(=S)NCC1CCCO1)c1cc(Br)ccc1Cl` (centres unmarked), the “hERG current change (%, negative = inhibition) at 1uM” value turned out to be 13.8%.

Consider `CCc1c(O)cc2n(c1=O)-c1ccccc1C2(C)C`, for which the “hERG current change (%, negative = inhibition) at 1uM” value is given as 8.42%. Regarding `O=C1CCC(C(=O)N2CCCCO2)CN1CCc1ccc(Cl)cc1` (centres unmarked), the “hERG current change (%, negative = inhibition) at 1uM” value is 1.45%.

Consider `O=C(N/N=C/c1cccc(F)c1)NC1CCCCC1`, for which the “hERG current change (%, negative = inhibition) at 1uM” value worked out at 3.4%. Take `CC(C)(C)OC(=O)NC(CCNC=C1C(=O)OC(C)(C)OC1=O)C(=O)O` (centres unmarked): the “hERG current change (%, negative = inhibition) at 1uM” value turned out to be 14.6%. The same measure for `CCN(CC)S(=O)(=O)c1ccc(S(=O)(=O)N(Cc2ccccn2)Cc2ccco2)cc1`: -22.8%. The same measure for `CC(NC(=O)c1cccnc1Sc1ccccc1)c1ccc(S(N)(=O)=O)cc1` (centres unmarked): 17.4%; for `Cc1ccc(S(=O)(=O)n2ccc(-c3cccc(OCc4c(F)cccc4Cl)c3)n2)cc1`: 14.4%. The same measure for `CN(C)S(=O)(=O)c1ccc(Cl)c(NC(=O)CN2CCNC(=O)C2)c1`: -8.8%. `C=CCSc1n[nH]c(-c2ccccc2)n1`: the “hERG current change (%, negative = inhibition) at 1uM” value stood at 2.69%. As to `CCn1c(SCC(N)=O)nc2c1c(=O)n(C)c(=O)n2C`, the “hERG current change (%, negative = inhibition) at 1uM” value is recorded as 19.1%. As for `COc1ccc(N2CCN(C(=O)c3ccc4c(c3)NC(=O)C(CSCc3c(F)cccc3Cl)N4)CC2)cc1` (centres unmarked), the “hERG current change (%, negative = inhibition) at 1uM” value is reported as 13.1%.

For `Cc1cc2cc(C#N)c(N3CCOCC3)nc2cc1Cl`, the “hERG current change (%, negative = inhibition) at 1uM” value stood at 10.5%. As for `CCOc1ccc(Nc2nc(Cc3nnc(SCC(=O)NC4CCCC4)n3C)cs2)cc1`, the figure is -13.9%.

`CCc1nc(N2CCC3(CC2)OCCO3)c2nnn(Cc3ccccc3)c2n1`: the “hERG current change (%, negative = inhibition) at 1uM” value is given as 2.78%.

As for `CC(=O)C1=C(O)C(=O)N(c2ccc(Br)cn2)C1c1ccc(F)cc1` (centres unmarked), the “hERG current change (%, negative = inhibition) at 1uM” value is reported as 15.6%. As for `COc1ccccc1N(C(=O)c1csnn1)C(C(=O)NC1CCCC1)c1ccccc1` (centres unmarked), the figure is 14.2%. In the case of `COC(=O)C1=C(c2c(C)noc2C)C[C@@H]2CC[C@H]1N2C(=O)N1CCC(O)(c2ccc(Cl)cc2)CC1`, the “hERG current change (%, negative = inhibition) at 1uM” value was -6.46%. As for `COc1ccc(Cl)cc1NS(=O)(=O)c1cccc(C(=O)NCC(c2ccco2)N(C)C)c1` (centres unmarked), the figure is -8.48%; as for `Cc1n[nH]c(C)c1-c1nc2ccccc2[nH]1`, 4.23%; as for `Cc1nc2ccc(NC(=O)N(C(C)C)C(C)C)cc2s1`, 3.18%.

Regarding `CCN(C(=O)Cc1ccc(Br)cc1)C1CCCCC1`, the “hERG current change (%, negative = inhibition) at 1uM” value was -2.56%. Take `Cc1cccc(NC(=O)CN2CCC(NC(=O)C3CCCCC3)CC2)c1C`: the “hERG current change (%, negative = inhibition) at 1uM” value was determined as 4.86%. As for `CCn1nc(C(=O)NNC(=O)c2cc(Cl)ccc2OC)c2ccccc2c1=O`, the figure is 8.9%; as for `C#CCOCCOCCOCCNc1nc(N2CCN(C(=O)C([C@@H](C)CC)n3cc(C(N)CO)nn3)CC2)nc(N2CCN(C(=O)[C@H](CCC(=O)O)n3cc(C(N)CC(C)C)nn3)CC2)n1.Cl` (some centres unmarked), 6.54%; as for `O=C(Nc1cccc(F)c1)c1cc(S(=O)(=O)N2CCOCC2)cs1`, 11.5%. `CC(C)Oc1cccc(C(=O)C2CCCN(Cc3cnc(N4CCCC4)s3)C2)c1` (centres unmarked): the “hERG current change (%, negative = inhibition) at 1uM” value is listed as -0.235%. The same measure for `CCOc1cc(NS(=O)(=O)c2ccc(NC(C)=O)cc2)c(OCC)cc1NC(=O)C(C)C`: 10.9%; for `CC1=C(C(=O)OCC(C)C)C(c2cccc(F)c2)N2C(=O)C(C)SC2=N1` (centres unmarked): 17.6%. Regarding `O=C1NC(SCCCF)=N/C1=C/c1ccc(-n2cncn2)cc1`, the “hERG current change (%, negative = inhibition) at 1uM” value was found to be 9.34%.

As to `Cc1ccc(S(=O)(=O)N2CCCC2c2nc3ccccc3s2)cc1` (centres unmarked), the “hERG current change (%, negative = inhibition) at 1uM” value is listed as 15%.

Regarding `O=C(O)CC(NC(=O)Nc1ccccc1)c1ccc(OC2CCCC2)cc1` (centres unmarked), the “hERG current change (%, negative = inhibition) at 1uM” value is reported as 25.5%.

With `Cc1ccc(CSc2nnc(CCNC(=O)OC(C)(C)C)o2)cc1`, the “hERG current change (%, negative = inhibition) at 1uM” value is recorded as 8.43%. Turning to `O=C([O-])c1ccccc1-c1c2cc(I)c(=O)c(I)c-2oc2c(I)c([O-])c(I)cc12.[Na+]`, the “hERG current change (%, negative = inhibition) at 1uM” value was found to be 6.4%.

Take `Cc1ccccc1Cn1cnc2c(nnn2Cc2ccc(F)cc2)c1=O`: the “hERG current change (%, negative = inhibition) at 1uM” value is on record as 2.63%. The same measure for `COc1ccccc1-c1nc(-c2ccccc2)nc(N2CCN(C)CC2)c1C#N`: 11.3%; for `Cc1ccc(C(C(=O)NCC2CCCO2)N(C(=O)c2snc(C(N)=O)c2N)c2ccc(C(C)C)cc2)o1` (centres unmarked): 16.5%; for `CCc1ccc(Nc2nc(C)cc(C)c2C(N)=O)cc1`: 7.64%. `O=C(Nc1ccc(NC(=O)c2cccs2)cc1)c1ccc(Br)o1`: the “hERG current change (%, negative = inhibition) at 1uM” value amounted to 6.6%. In the case of `CC1CCN(CCCNC(=O)C2CCCN(c3ncnc4c3nc3n4CCCCC3)C2)CC1` (centres unmarked), the “hERG current change (%, negative = inhibition) at 1uM” value came to 11.6%. In the case of `CCCN(CC(=O)Nc1ccc(F)c(F)c1F)C(=O)Cn1c(=O)cnc2ccccc21`, the “hERG current change (%, negative = inhibition) at 1uM” value is recorded as 0.188%. `CCCCC1=CC2=C(c3ccco3)C(=O)C(C)(OC(=O)c3ccc(OC)cc3)C(=O)C2=CN1C1CCCCC1` (centres unmarked): the “hERG current change (%, negative = inhibition) at 1uM” value is 8.24%. The same measure for `Clc1ccc(C2=Nn3c(nnc3-c3cccs3)SC2)cc1`: -1.98%; for `CCC(C(=O)OCC(=O)N1CCN(c2ccc(OC)cc2)CC1)c1ccccc1` (centres unmarked): 7.79%. The same measure for `Cc1ccccc1NC(=O)NCC1CCN(C(=O)OC(C)(C)C)CC1`: 2.43%; for `CNC(=S)N(CCCn1ccnc1)Cc1c(F)cccc1Cl`: 8.71%; for `COCCCNC(=O)CCc1nc(-c2ccccc2Cl)no1`: 11.4%. As for `COc1ccc(OC)c2[nH]c(=O)c(CCNC(=O)Cc3cccs3)cc12`, the figure is 2.63%. As for `COC(=O)c1cc2c(C)[nH]c(C)c2cc(C(=O)OC)c1=O`, the “hERG current change (%, negative = inhibition) at 1uM” value is 8.7%. As for `O=C1OCCN1C(=O)[C@H]1[C@H](c2ccc([N+](=O)[O-])cc2)C(c2cccc(Cl)c2)=NN1c1ccccc1`, the figure is 10.5%; as for `CCOC(=O)C1CCN(C(=O)Cn2c(=O)oc3cc(S(=O)(=O)N4CCCC4)ccc32)CC1`, 4.08%; as for `NNc1nc(-c2ccccc2Cl)nc2sc3c(c12)CCCC3`, 16.4%. The same measure for `COc1ccc(-c2nnnn2C)cc1S(=O)(=O)NCc1ccccc1`: 3.04%; for `C[C@H]1O[C@H]1P(=O)([O-])[O-].[Na+]`: 3.98%. The same measure for `Cc1ccc(C)c(S(=O)(=O)N2CCN(CC(=O)Nc3ccc4c(c3)CCC4)CC2)c1`: 3.13%. As for `CC1CCN(CC[C@H]2CCCN2S(=O)(=O)c2cccc(O)c2)CC1.Cl`, the “hERG current change (%, negative = inhibition) at 1uM” value is on record as -3.3%. As for `Cc1sc(N/N=C/C=C/c2ccccc2)nc1-c1ccccc1`, the “hERG current change (%, negative = inhibition) at 1uM” value was 7.63%.

As to `CCc1ccc2[nH]c3nc(SCCN4CCOCC4)nnc3c2c1`, the “hERG current change (%, negative = inhibition) at 1uM” value is 12.4%.

For the molecule `COCCNC(=O)/C(C#N)=C/c1c(F)cccc1Cl`, the “hERG current change (%, negative = inhibition) at 1uM” value stood at 22%. For the molecule `Cc1cc(=O)oc2cc(NC(=O)c3cc4ccccc4o3)ccc12`, the “hERG current change (%, negative = inhibition) at 1uM” value stood at 9.07%. The same measure for `CC1(C)CC(=O)C/C(=N/NC(=O)CCCOc2ccc(Cl)cc2Cl)C1`: -0.436%; for `Cc1cc(NC(=O)CSCC(=O)N2CCN(c3cccc(C(F)(F)F)c3)CC2)no1`: 10.4%. As for `CN(CC1CCCO1)S(=O)(=O)c1ccc(C(=O)Nc2ccc3c(c2)OCO3)cc1` (centres unmarked), the figure is 9.53%; as for `CCOC(=O)c1sc2nc[nH]c(=O)c2c1C`, 12.6%; as for `CCOc1ccccc1C1C2CCCCC2(O)CCN1C(=O)c1cccs1` (centres unmarked), -1.66%.

Turning to `Cn1c(C(=O)N2CCN(Cc3ccccc3)CC2)cc2c(=O)n(C)c3ccccc3c21`, the “hERG current change (%, negative = inhibition) at 1uM” value is reported as 4.78%.

On to `CCN(CC)c1ccc(N2C(=O)/C(=C\c3cccnc3)SC2=S)cc1`, for which the “hERG current change (%, negative = inhibition) at 1uM” value came to 7.28%.

As to `CN(Cc1c(F)cccc1Cl)c1nnnn1-c1ccccc1`, the “hERG current change (%, negative = inhibition) at 1uM” value is on record as 11%.

As for `Cc1nc2nc(-c3ccccc3)cc(=O)n2[nH]1`, the “hERG current change (%, negative = inhibition) at 1uM” value worked out at 9.8%. As for `O=C(Nc1cccc(NC(=O)c2ccc(Br)cc2)c1)c1ccccc1`, the “hERG current change (%, negative = inhibition) at 1uM” value was found to be 12.6%. Regarding `O=C(CO/N=C/c1ccc(OC(F)F)cc1)NC1CCCC1`, the “hERG current change (%, negative = inhibition) at 1uM” value was -2.37%. The same measure for `COc1ccc(Br)cc1/C=N/NC(=O)CN1CCN(Cc2ccccc2)CC1`: 6.09%; for `Cc1ccccc1-c1nnc(CN2CCN(C(=O)c3ccco3)CC2)o1`: -0.975%; for `Oc1ccccc1/C=N/n1c2ccccc2c2ccccc21`: 14.5%. The same measure for `O=C(Nc1ccc2c(c1)CN(Cc1ccccc1O)CC2)C1CCCO1` (centres unmarked): 8.1%; for `Cc1cc(C)c(N)cc1C`: 9.5%. `COc1ccccc1N1CCN(C2CCCN(C(=O)CCC(C)=O)C2)CC1` (centres unmarked): the “hERG current change (%, negative = inhibition) at 1uM” value was 17%. For `Cl.NS(=O)(=O)c1ccc(CCNCc2ccccc2OCc2ccc(F)cc2)cc1`, the “hERG current change (%, negative = inhibition) at 1uM” value is -21.5%.

In the case of `COc1ccc([C@H]2CC(=O)C=C(c3ccc(O)cc3)C2)cc1OC`, the “hERG current change (%, negative = inhibition) at 1uM” value is on record as 18.6%. `Cc1ccc2c(NC(=O)c3ccco3)cccc2n1`: the “hERG current change (%, negative = inhibition) at 1uM” value came to 9.15%.

With `O=C(CN1C(=O)c2cccc([N+](=O)[O-])c2C1=O)OCC(=O)N1CCCCC1`, the “hERG current change (%, negative = inhibition) at 1uM” value amounted to 7.29%. Regarding `COc1cccc2c1C(=O)c1c(O)c3c(c(O)c1C2=O)C[C@@](O)(C(=O)CO)C[C@@H]3O[C@H]1C[C@H](N)[C@@H](O)[C@H](C)O1.Cl`, the “hERG current change (%, negative = inhibition) at 1uM” value amounted to 13.3%.

Take `COc1cccc(-c2cc3nc(-c4ccccc4)cc(N4CCCC(O)C4)n3n2)c1` (centres unmarked): the “hERG current change (%, negative = inhibition) at 1uM” value was found to be 5.78%.
